# Paper PMC10668032
# Some of the results follow. At the low end of the ranking the order means little.
# Target: SIX1 homeodomain (reference allele) (UniProt Q15475)
# Assay: universal protein binding microarray
# Details: Universal all-10-mer PBM (8x60K, AMADID 030236), 300 nM GST-tagged protein, Alexa Fluor 488 anti-GST; buffer, salt, pH and temperature not stated; high values mean tight binding; most listed sequences are background and not binding sites; double strand, one strand shown
row,Sequence,binding signal [E-score]
1,TAGAAGGA,0.0376
2,CTTGCCGC,-0.203
3,GCAGTGGA,-0.165
4,CTCCCGGA,0.141
5,ATTGTATG,0.0928
6,AGGGGGGC,-0.189
7,CGTATTTC,-0.0214
8,ATGCGGAG,-0.137
9,ACAGCCCT,-0.237
10,AACCTAGC,0.0239
11,CAGCATAA,-0.106
12,ACCAAGCG,-0.0196
13,CAGGGCCA,-0.228
14,CGCCGAAA,-0.0834
15,ACAAAGGC,-0.334
16,ACCTGTCG,-0.0198
17,ATACCAGC,0.304
18,CGTGCACC,-0.111
19,AGAGGTGA,0.0642
20,ATTAGGCC,0.0175
21,CGCTTGAC,-0.21
22,ATGATTGA,0.0722
23,GTAGGGCA,-0.0697
24,TCAATGGA,-0.0709
25,AATCCTTG,0.0307

row,Sequence,binding signal [E-score]
1,TCGGCAGA,0.113
2,ATCGACCC,0.243
3,CATGAGCC,0.118
4,CAGAGCCG,-0.147
5,CGGGAGCA,-0.1
6,CTATCATA,0.341
7,TAAGTCCA,-0.129
8,AACATGAA,-0.177
9,CAAATATC,0.21
10,ACGACGGA,-0.113
11,CGAGGCGA,0.125
12,ACGGCCTC,-0.144
13,CCCGACGC,-0.135
14,GTAACACA,-0.0821
15,TAGGGATA,0.41
16,GTTCAATA,0.143
17,TATTAATA,0.248
18,CCTAGAAA,-0.248
19,CTTTAAAA,-0.215
20,CCGGTTAG,-0.0823
21,TGATAACA,-0.0289
22,CGAATCCC,0.117
23,AGCGGGAG,-0.143
24,CGGTCGGA,0.125
25,GTTCTACA,-0.0627

row,Sequence,binding signal [E-score]
1,GGGGCGAA,-0.135
2,GTCCTGCA,-0.229
3,CTAATAAG,-0.0962
4,AAAACGCA,-0.116
5,AAGATCCC,0.243
6,TGGGCTAA,-0.19
7,GTGAAACA,-0.0686
8,CCAGGGCA,-0.0668
9,TCTTGACA,0.0127
10,CAACTGTC,-0.207
11,TCACATCA,0.109
12,CTTTAGTC,-0.17
13,AGAAATAA,-0.0857
14,CATTTGGG,-0.0944
15,GACATACC,-0.033
16,CAGCAAGG,0.00366
17,GGCACGTA,-0.00795
18,GCGGGTAC,0.0364
19,ACTTGTCT,-0.159
20,AGTGATGC,0.0565
21,CGGACGAC,-0.00728
22,TGCGCACA,-0.134
23,AATCTTTG,-0.146
24,CAAGCTCG,-0.0293
25,GAACCCTA,0.095

row,Sequence,binding signal [E-score]
1,GCGTGGAC,-0.177
2,ATGTGGCA,-0.161
3,AGCTGGCC,-0.276
4,TACGCGTA,0.125
5,CACAAGTA,0.0172
6,TCACCTGA,0.165
7,ACTCCCAC,-0.0948
8,ACTATCGG,0.122
9,CAAACCCC,0.101
10,CTGCTCAC,-0.014
11,ACATTCGG,0.132
12,CAGAACAG,-0.176
13,CTAATTGA,0.113
14,ATTCGACG,-0.158
15,ATAAGCTA,-0.0406
16,CTCTTAAG,-0.026
17,GCTGACTA,-0.142
18,GAAGGCGC,-0.0979
19,CGTTGCCC,-0.232
20,AGTTGCGG,-0.096
21,AGAGCCTG,-0.0577
22,ACGCGGAG,-0.108
23,CGTACTCA,-0.0788
24,CGCATTGC,-0.0165
25,CTCGTCGA,-0.258

row,Sequence,binding signal [E-score]
1,CGTACAGC,-0.185
2,CCTGTCAG,0.033
3,CCCTGCCA,-0.226
4,ACTGTTCG,-0.0188
5,CAACCGTG,-0.0206
6,AAGATGCA,0.0379
7,GCGGCATA,0.0603
8,ACATGGGA,0.128
9,CCGACCAA,0.0118
10,CTTTTGGC,-0.158
11,CCTTAACG,0.00154
12,GGGGATCA,0.447
13,AACGAGAC,-0.0716
14,AGAAGCCA,-0.0255
15,GATTGATA,0.381
16,CAAAAGAA,-0.132
17,AATTCCTA,-0.0452
18,AGCATCGG,-0.0463
19,CAATTGCG,-0.0326
20,CTGAGCGC,-0.126
21,CCTCCCCC,-0.13
22,CATTAATA,0.154
23,ACAATGAC,-0.174
24,GCCGAAAC,-0.132
25,CCGTCGTA,-0.0993

row,Sequence,binding signal [E-score]
1,GAGACGAC,0.0861
2,CACTAGGA,0.00767
3,GCACCAGC,-0.165
4,AGGCCGAG,-0.234
5,AGCGGAAC,-0.0398
6,ATGGCCCA,-0.228
7,CGGATACA,0.446
8,ACATTGTA,-0.021
9,CGAGCACA,-0.106
10,CTAAAGAA,-0.221
11,CCCGAGCG,-0.131
12,CAAAATTC,-0.219
13,CGAAACGC,-0.145
14,GCTCCACC,-0.186
15,CAGCCTCG,-0.0738
16,CGCTACAC,-0.00354
17,ACACACGT,-0.0577
18,ATTAACTA,0.0179
19,GGGCGCAA,-0.167
20,GGGTTATA,0.163
21,GGAGTCAA,0.00597
22,GCTCAAGA,-0.131
23,GAGTATAA,0.179
24,CCGGTGCA,-0.0272
25,AGTCACCC,-0.237

row,Sequence,binding signal [E-score]
1,CATTACAG,-0.118
2,CATGGAGA,0.111
3,AGTCGGTC,-0.0589
4,CCGGATAA,0.299
5,CTAAATGC,-0.091
6,CGCCGTCC,-0.159
7,CTGAAACC,0.155
8,ACCGCTGC,-0.143
9,GCCTGTAA,-0.182
10,GCTACAAC,-0.2
11,CGAGACTA,0.121
12,AGTTTAGA,0.086
13,CGTGCCAC,-0.175
14,GAGAATCA,0.0358
15,CCATTAGG,-0.0724
16,TCGATACA,0.348
17,ATACCGAG,0.304
18,AGAAGGGG,0.103
19,ACGCACCT,-0.0311
20,CAATACAC,0.146
21,AGTTATAA,-0.103
22,CAGCTCGA,0.0121
